# Experimental data from PubChem BioAssay AID1240 (Sanford-Burnham Center for Chemical Genomics, 2008).
# In all, about 50,000 compounds went through this assay and about 800 (1.6%) showed an effect of 50% or more. The list shows a part of the results.
# Molecular target: Bcl-2-like protein 10 (Homo sapiens) (UniProt Q9HD36)
# Assay: Phenotype converters, Bcl-B/TR3 peptide binding displacement, primary biochemical FP (AID 1240);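 also: 0% = Bcl-B with tracer peptide and DMSO and 100% = tracer peptide lacking Bcl-B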
# Details: GST-Bcl-B / FITC-TR3 peptide fluorescence polarization; stronger effect = higher value; compound at 3.75 mg/L
# Chain of UniProt Q9HD36 (Q9HD36 whole entry, looked up): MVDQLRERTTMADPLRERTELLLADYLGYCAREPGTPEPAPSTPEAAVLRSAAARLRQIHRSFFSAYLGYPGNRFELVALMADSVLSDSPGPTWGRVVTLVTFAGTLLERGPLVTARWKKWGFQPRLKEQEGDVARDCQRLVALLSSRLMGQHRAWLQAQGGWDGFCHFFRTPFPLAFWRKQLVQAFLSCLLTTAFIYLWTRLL
row,SMILES,displacement [%]
1,O=C1Nc2ccccc2/C1=C\c1c(Cl)cccc1Cl,-18
2,CC(NC(=O)CSc1nc2ccc([N+](=O)[O-])cc2s1)c1ccccc1 (stereo not given),11.4
3,O=C(Nc1ccc2nn(-c3ccc(F)cc3)nc2c1)c1ccccc1[N+](=O)[O-],1.6
4,Cc1ccc(NCCC(=O)c2cccc([N+](=O)[O-])c2)cc1,14.9
5,O=C(c1cccs1)N1CCN(Cc2ccccc2)CC1,-5.3
6,Cc1oc2ccc(OCC(=O)c3ccccc3)cc2c1C(=O)OC(C)C,8.1
7,C=CCNC(=S)NC12CC3CC(CC(C3)C1)C2,18.4
8,Cc1ccc(C(C)NC(=O)c2ccccc2)c(C)c1 (stereo not given),3
9,C=CCc1cc(/C=C2\C(=O)NC(=O)N(c3ccc(C)cc3)C2=O)cc(OC)c1OCC(=O)O,-6.6
10,O=C(Nc1ccc(Nc2ccccc2)cc1)c1cccc(Br)c1,-0.1
11,C=CCN1C(=O)/C(=C\c2cccc(OCc3ccccc3)c2)SC1=S,4.2
12,Cc1cc(Br)ccc1N1C(=O)/C(=C/c2ccc(N(C)C)cc2)C(=O)NC1=S,-12.8
13,COC(=O)c1cc(NC(=O)COc2ccccc2[N+](=O)[O-])cc(C(=O)OC)c1,13
14,Cc1cc(NC(=O)CCCC(=O)O)no1,-12.3
15,COc1ccc(N=c2ssc3c2-c2cc(C)c(C)cc2NC3(C)C)cc1,-2
16,Cc1ccc(S(=O)(=O)NCCSCc2ccc(Br)cc2)cc1,-4.2
17,Cc1ccc(OCC(=O)N/N=C\c2ccc(C)cc2O)cc1,4.5
18,CC(=NCC(C)C)c1c(C)[nH]n(-c2ccc([N+](=O)[O-])cc2)c1=O,-8.9
19,Cc1ccccc1C(=O)Nc1ccc(-c2ccccc2)cc1,7.3
20,CCOC(=O)c1c(C)oc2cc(Br)c(OC(C)=O)c(OC(C)=O)c12,-7.7
21,CCSc1nnc(NC(=O)C(CC)CC)s1,-1.6
22,COc1cc(NC(=O)c2cccnc2)c(OC)cc1NC(C)=O,2.8

row,SMILES,displacement [%]
1,COc1ccc(OC)c(-n2c(O)c(C=Nc3ccc4c(c3)OCO4)c(=O)[nH]c2=O)c1,7.9
2,CCOC(=O)C1=C(O)/C(=C/c2ccc(C(C)(C)C)cc2)N=C1C,-15.1
3,CC(=O)C1=C(O)C(=O)N(CCN(C)C)C1c1ccc2c(c1)OCO2 (stereo not given),-0.1
4,Cc1ccc(C(=O)/C=C/c2ccc([N+](=O)[O-])cc2)s1,-2.1
5,COc1cc2c(cc1NCc1ccncc1)oc1ccccc12,-12.3
6,COC(=O)C1=C(O)/C(=C/c2cccc(OC)c2O)N=C1C,13.6
7,C/C(=N/NC(=O)c1cccc(O)c1)C1CC1,7.9
8,C(=N\N=C1c2ccccc2-c2ccccc21)/c1ccc2c(c1)OCO2,-18.2
9,O=C(O)c1ccccc1Sc1ccccc1C(=O)O,-5.4
10,S=C(SC1OCCOC1SC(=S)N1CCOCC1)N1CCOCC1 (stereo not given),6.3
11,COc1ccc(/C=N/NC(=O)CCc2c(C)n[nH]c2C)cc1O,-9.5
12,O=C1NC(=O)N(c2ccccc2)C(=O)/C1=C\c1ccc(-c2ccccc2Cl)o1,42.6
13,O=C(NCc1ccncc1)C(O)(c1ccccc1)c1ccccc1,-4.7
14,Cc1c(-c2cccs2)nc2ccccc2c1C(=O)O,6.1
15,COc1ccccc1C(O)(C(=O)Nc1ccccn1)c1ccccc1OC,-26.2
16,CCOc1ccc(/C=C/C(=O)c2ccc(C)cc2)cc1,0.3
17,O=C1CC(c2ccccc2)CC(O)=C1C=NC1CCCCC1 (stereo not given),-10.4
18,O=C(NCc1ccccc1)c1ccc(Cl)c(S(=O)(=O)N2CCCCC2)c1,-9.3
19,O=C(NCC1(c2ccccc2)CCOCC1)c1ccc(Br)o1,-0.9
20,CCOc1cc(C=O)ccc1OCc1ccc(Cl)cc1,-2.9
21,O=C(CCc1ccccc1)Nc1sc2c(c1C(=O)O)CCCC2,-1.2
22,O=C(Nc1ccc(Cl)cc1)OCCOc1ccc(Br)cc1Br,6.9

row,SMILES,displacement [%]
1,O=c1oc(-c2cccc(F)c2)nc2ccc(Cc3ccc4nc(-c5cccc(F)c5)oc(=O)c4c3)cc12,13.2
2,COc1ccc(NC2(c3ccc(Cl)cc3)C(=O)c3ccccc3C2=O)cc1,-8.7
3,CN(Cn1nc(-c2ccccc2)oc1=S)c1ccccc1,-0.9
4,Oc1ccc(C=Nc2ccc(O)cc2)cc1,-14.8
5,CN(C(=O)NS(=O)(=O)c1ccccc1Cl)c1nc(OCC(F)(F)F)nc(OCC(F)(F)F)n1,-0.6
6,CCOC(=O)c1c(NC(=O)CN2C(=O)S/C(=C\c3ccccc3)C2=O)sc2c1CCCC2,-3.3
7,CCCCOC(=O)c1ccc(NC(=O)c2cccc(OC)c2)cc1,12.6
8,O=C(CC1(O)C(=O)N(Cc2ccccc2)c2ccccc21)c1cccs1 (stereo not given),-6.1
9,Cc1ccc(-c2nc3s/c(=C\c4cn(-c5ccccc5)nc4-c4ccccc4)c(=O)n3n2)cc1,8.5
10,COCCOC(=O)C1=C(C)NC(=S)NC1c1ccc(OC)c(OC)c1 (stereo not given),-14.3
11,COc1cc(NC(=O)C2CCCCC2)c2ncccc2c1,7.1
12,CCSc1nnc(NC(=O)C2CC3CCC2C3)s1 (stereo not given),2.7
13,CCOc1cc(C(=S)N2CCOCC2)cc(Br)c1OC(=O)c1ccc(Cl)cc1Cl,14.1
14,COC(=O)c1ccc(C(=O)OC)c(NC(=O)COc2ccc(C)cc2C)c1,-1.3
15,O=C(O)c1ccc(NC(=O)c2ccccc2NC(=O)c2cccs2)cc1,9.6
16,Cn1c(=O)c2c(nc(C(N)=O)n2C)n(C)c1=O,10.5
17,COc1ccc(C2CC(=O)C3=C(C2)Nc2ccccc2NC3c2ccccc2[N+](=O)[O-])cc1OC (stereo not given),-1.6
18,O=C(Nc1ccc(Cl)cn1)c1ccc2c(c1)OCCO2,8.3
19,Cn1c(=O)n(C)c2cc(/C=C(\C#N)c3nn(-c4ccccc4)c(N)c3C#N)ccc21,92.9
20,O=C(/C=C/c1ccco1)Nc1nc2ccc(Br)cc2s1,59.2
21,O=C(COc1ccc(Cl)cc1)Nc1ccc(OC(F)(F)F)cc1,9.1
22,COC(=O)c1cc(C(=O)N2CCN(C)CC2)cc([N+](=O)[O-])c1,12.3

row,SMILES,displacement [%]
1,COc1cc(/C(C)=N/N2CCN(Cc3ccc(C)cc3)CC2)ccc1O,13.1
2,COc1ccc(N(CC(=O)Nc2ccc(Cl)cc2)S(C)(=O)=O)cc1,11.3
3,CCOc1cc(/C=N/n2cnnc2)cc(I)c1O,3.8
4,Cc1ccccc1OCC(=O)Nc1ccc(OC(F)(F)F)cc1,10.7
5,CC(C)(C)c1ccc(OCC(=O)Nc2sc3c(c2C(N)=O)CCCC3)cc1,4
6,Cc1ccc2nc(Nc3nc(O)c(Cc4ccccc4)c(=O)[nH]3)nc(C)c2c1,-4.2
7,Cc1ccc(/C=C2\SC(=S)N(c3c(C)n(C)n(-c4ccccc4)c3=O)C2=O)cc1,10.9
8,CCOC(=O)c1c(NC(=O)c2ccccc2OC)sc(C(=O)Nc2ccc(C)cc2C)c1C,2.6
9,N#C/C(=C\c1ccccc1[N+](=O)[O-])C(N)=O,-2.8
10,Cc1cccc(NCc2ccc3c(c2)OCO3)c1,3.2
11,CCOC(=O)c1oc2cccc(O)c2c1CNCc1ccccc1,14.1
12,O=C(/C=C/c1cccc([N+](=O)[O-])c1)Nc1cccnc1,4.2
13,Cc1ccc(OCC(=O)Nc2nc(-c3ccccc3)cs2)c(C)c1,7.1
14,O=C(NC(=S)Nc1ccc2oc3ccccc3c2c1)c1ccccc1,91.8
15,O=C(Nc1ccccc1Cl)N1CCN(Cc2ccc3c(c2)OCO3)CC1,-3
16,CCOC(=O)C1=C(O)/C(=C/c2ccc(O)cc2)SC1=Nc1ccc(Cl)cc1,104
17,COc1ccc(-c2cc(-c3ccccc3)nc(N/N=C/c3ccc(O)c(C)c3O)n2)cc1,5
18,COc1ccc(-c2nnc(SCC(=O)NC3CCCC3)n2-c2ccccc2)cc1,-15.1
19,Cc1ncc(C[n+]2csc(CCOC(=O)C3C4CC5CC(C4)CC3C5)c2C)c(N)n1 (stereo not given),8
20,CCC1=NN2C(=N)/C(=C/c3ccc(OCc4ccccc4F)c(OC)c3)C(=O)N=C2S1,16.2
21,CCOC(=O)c1ccc(-c2ccc(C(=O)Nc3ccc(-c4nc5ccccc5o4)c(O)c3)o2)cc1,8.7
22,O=C1/C(=C\c2cc([N+](=O)[O-])ccc2Cl)SC(=S)N1Cc1ccccc1,-6.3

row,SMILES,displacement [%]
1,O=C(CSc1nc2ccc(NC(=O)c3ccc(Cl)cc3Cl)cc2s1)NC1CCCCC1,15.4
2,C=CCN(CC=C)C(=O)c1ccccc1,6.2
3,Cc1ccnc(NC(=S)NC(=O)/C=C/c2ccccc2)c1,-1.3
4,COc1cc(/C=C2/SC(N)=NC2=O)ccc1OCc1ccccc1[N+](=O)[O-],3.9
5,CN1CCN(Cc2c(O)ccc3c4c(c(=O)oc23)CCC4)CC1,-0.5
6,O=[N+]([O-])c1ccccc1CSc1nnnn1-c1ccccc1,9.6
7,O=C1C(Nc2cccc(C(F)(F)F)c2)=C(N2CCCCC2)C(=O)c2ccccc21,11.8
8,Cc1cccc(C)c1OCC(=O)Nc1ccc([N+](=O)[O-])cc1,14
9,COc1ccc(C(O)c2cnc(C(C)C)n2C)cc1OC (stereo not given),-8.4
10,C=CCc1cccc(/C=N\N2CCN(c3ccccc3)CC2)c1O,7.6
11,O=C(Nc1ccccc1)Nc1nnc(COc2ccc(F)cc2)s1,14.6
12,CCOc1cc(C2CC(=O)Nc3c2ccc2ccccc32)cc(Br)c1OC (stereo not given),-0.9
13,Cc1csc(NC(=O)c2ccc([N+](=O)[O-])cc2Cl)n1,7.8
14,CC1=C(C(=O)Nc2ccccc2)C(c2ccc(N(C)C)cc2)NC(=S)N1 (stereo not given),-2.1
15,CN1CCN(NC(=O)CN2C(=O)S/C(=C/c3ccccc3)C2=O)CC1,-4.3
16,CCOc1ccc(CN2CCN(C(=O)c3ccc([N+](=O)[O-])cc3)CC2)cc1,-2.3
17,COC(=O)c1ccccc1NC(=O)COc1cc(C)cc(C)c1,1.7
18,CCSCCOC(=O)C1=C(C)N(C)C(=O)NC1c1ccccc1[N+](=O)[O-] (stereo not given),7.3
19,COC(=O)C1=C(C)N(c2ccc(Cl)cc2)C(=O)/C1=C\c1ccc(O)c(OC)c1,21.7
20,Cc1ccc(S(=O)(=O)N2CCN(C3CCCCC3)CC2)cc1,-8.7
21,COc1ccc2c(c1)CC/C(=C\c1ccc(Br)cc1)C2=O,9.8
22,O=C(c1ccc(Cl)cc1)N1CCN(c2ccccn2)CC1,-4.5
